Measured values: article PMC6919601, “Identification of Plasmodium dipeptidyl aminopeptidase allosteric inhibitors by high throughput screening” (PLoS ONE, 2019)
The whole screen tested about 110,000 compounds, of which about 230 (0.21%) showed an effect of 50% or more. This is one part of the list.

target: DPAP1 (Plasmodium falciparum, UniProt Q8IIJ9); test: primary screen, percent inhibition; read by cleavage of a fluorogenic dipeptide substrate; higher = more effect of the substance; parameters: species or system P. falciparum D10 trophozoite lysates; single well
Sequence (Q8IIJ9 whole entry, looked up): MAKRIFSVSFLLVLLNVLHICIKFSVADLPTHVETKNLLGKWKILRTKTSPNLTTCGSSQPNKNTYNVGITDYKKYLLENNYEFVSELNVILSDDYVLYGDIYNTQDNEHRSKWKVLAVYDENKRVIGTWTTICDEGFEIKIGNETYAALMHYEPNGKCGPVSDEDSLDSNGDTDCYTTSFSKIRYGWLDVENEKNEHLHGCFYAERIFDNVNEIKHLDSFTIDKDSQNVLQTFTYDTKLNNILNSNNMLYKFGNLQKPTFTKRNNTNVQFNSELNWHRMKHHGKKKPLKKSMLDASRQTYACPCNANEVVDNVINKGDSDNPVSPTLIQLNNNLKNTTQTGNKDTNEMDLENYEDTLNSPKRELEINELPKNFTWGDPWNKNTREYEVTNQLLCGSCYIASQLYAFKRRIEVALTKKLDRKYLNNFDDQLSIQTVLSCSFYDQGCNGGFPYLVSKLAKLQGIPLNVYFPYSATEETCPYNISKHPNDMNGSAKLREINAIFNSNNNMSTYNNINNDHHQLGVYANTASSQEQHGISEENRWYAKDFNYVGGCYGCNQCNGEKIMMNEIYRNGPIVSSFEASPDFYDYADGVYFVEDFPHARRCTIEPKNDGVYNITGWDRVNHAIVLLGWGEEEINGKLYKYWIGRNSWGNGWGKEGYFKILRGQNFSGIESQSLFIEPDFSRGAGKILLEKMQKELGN
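Further: 30 min substrate incubation versus DMSO and 10 µM JCP410 controls.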

Row | SMILES | % Inhibition @ 10 uM [%]
1 | CN1CCN(C(=O)C(C(=O)N2CCN(C)CC2)C23CC4CC(CC(C4)C2)C3)CC1 | -0.736
2 | CCOC(=O)c1ccc(CNCc2ccc(Br)cc2)cc1 | 4.61
3 | O=C(NCCCN1CCN(C2CCCCC2)CC1)c1csc2c1CCCCC2 | 0.277
4 | Cc1nc(N2CCCC2)ncc1C(=O)O | 2.25
5 | C=CCOC(=O)C1=C(C)N=C(S)NC1c1ccccc1OCC (stereo not drawn) | -4.77
6 | NS(=O)(=O)c1cnccc1NCCc1ccccc1 | 0.843
7 | C=CCOc1cccc(CNc2cccc(C(=O)O)c2)c1 | 0.907
8 | COc1ccc(C(C)C)cc1S(=O)(=O)NCc1ccccn1 | 5.17
9 | N#Cc1c(NC(=O)c2ccco2)sc2c1CCCC2 | -3.46
10 | COc1cccc(-c2cc(-c3ccc(C)o3)c(C#N)c(N)n2)c1 | -3.13
11 | CN(C)c1ccc(/C=C2\NC(=O)NC2=O)cc1 | -4.01
12 | CC1CCCN(S(=O)(=O)c2ccc(S(=O)(=O)N3CCN(c4ncccn4)CC3)cc2)C1 (stereo not drawn) | -2.92
13 | CC(C)N(Cc1nc(-c2ccccc2)no1)C(=O)CSc1ccccc1 | -4.62
14 | CN(C)CC(Oc1ccc(Cl)cc1)C(=O)O (stereo not drawn) | -4.26
15 | Cc1sc2ncn(Cc3c(F)cccc3Cl)c(=O)c2c1C | 5.59
16 | Cc1ccc(C)c(N(CC(=O)Nc2ccc3c(c2)OCO3)S(=O)(=O)c2ccccc2)c1 | -3.04
17 | COc1ccc(C(CC(=O)O)NC(=O)CSc2nc3ccccc3o2)cc1 (stereo not drawn) | 0.9
18 | c1ccc2cc(OCCCN3CCCCC3)ccc2c1 | -0.351
19 | Cc1cccc(NC(=O)c2cc3ccccc3o2)c1C | -2.14
20 | O=C(NCc1cccnc1)C1c2ccccc2C(=O)N1Cc1ccc(F)cc1Cl (stereo not drawn) | 3.5
21 | O=C1OC(c2ccccc2)=N/C1=C/c1ccc(-c2ccc(Cl)c(C(=O)O)c2)o1 | 44.9
22 | COc1ccc(C2C(C(=O)c3ccc(Cl)cc3)=C(O)C(=O)N2CCO)c(OC)c1 (stereo not drawn) | 1.17
23 | Cc1cccc(N2/C(=N/C(=O)c3ccccc3)SC3CS(=O)(=O)CC32)c1 (stereo not drawn) | -6.67
24 | CNC(=O)c1nnc(Cc2ccc(OC)c(OC)c2)o1 | 1.94
25 | CC(C)NC(=O)c1ccc(COCC(F)(F)C(F)F)cc1 | 2.54

Row | SMILES | % Inhibition @ 10 uM [%]
26 | CCn1c(SCC(=O)Nc2ccc3sc(C)nc3c2)nc2ccccc2c1=O | -2.82
27 | Cc1nn2nnnc2nc1O | -3.23
28 | CCn1c2c(c(C)cc1=O)C(=O)CC(C)(C)C2 | -2.85
29 | COc1ccc(CNc2nc(-c3ccccc3)nn2C(=O)c2ccc(OC)c(OC)c2)cc1 | 0.628
30 | O=C1CC(c2ccc(Cl)cc2)N2CCCNC2=C1C(=O)Nc1cccc2ccccc12 (stereo not drawn) | -2.45
31 | O=C(CCc1nc2cccnc2n1-c1ccccc1)N1CCc2ccccc2C1 | -2.88
32 | O=C(Nc1ccncc1)C1CCC(CNS(=O)(=O)c2cccc3nsnc23)CC1 (stereo not drawn) | -2.25
33 | CCOc1ccccc1CNC(=O)C1CCN(c2ncnc3c2nc2n3CCCCC2)CC1 | 5.05
34 | COc1ccc(S(=O)(=O)N(CC(=O)Nc2ccc3c(c2)OCO3)c2cc(C)cc(C)c2)cc1OC | 3.09
35 | COc1cc(CN(C(=O)c2ccco2)C2CCS(=O)(=O)C2)cc(OC)c1OC (stereo not drawn) | -1.47
36 | O=C(NCCCCNC(=O)C12CC3CC(CC(C3)C1)C2)C12CC3CC(CC(C3)C1)C2 | -7.01
37 | O=C(CCN1C(=O)c2ccccc2C1=O)NCCc1nc2ccccc2[nH]1 | -5.51
38 | Cc1nn(-c2ccccc2)c2c1C(c1cccc(O)c1)C(C#N)=C(N)O2 (stereo not drawn) | 0.774
39 | COc1ccc(Cc2nn3c(-c4ccccc4Br)nnc3s2)cc1 | -0.45
40 | CC(C)(C)c1cc(O)c2oc(=O)c(S(=O)(=O)c3ccccc3)cc2c1 | -3.1
41 | COc1cccc(C(=O)N2CCN(C(=O)c3ccco3)CC2)c1 | -4.7
42 | CCOC(=O)C1CCN(Cc2ccccc2OC)CC1 | -1.86
43 | N#CC(C(N)=O)c1ccc2ccccc2c1 (stereo not drawn) | 3.8
44 | Cc1cccc2c1-c1sc(C(=O)Nc3cccnc3Cl)cc1CO2 | 0.291
45 | CC(=O)NCCNc1nc2c(-c3cccc(C(F)(F)F)c3)nnn2c2ccccc12 | 0.44
46 | COC(=O)/C(=C/c1ccc(Cl)c(Cl)c1)C(C)=O | 25.5
47 | COc1ccc(CNC(=O)c2cc(C3CC3)nc3c2c(C)nn3-c2ccc(C)cc2)cc1 | 7.7
48 | COc1cc(OC)c(OC)cc1/C=C1\N=C(c2ccc(C)cc2)OC1=O | -0.441
49 | COc1cc2c(cc1OC)C(c1cccc(F)c1)CC(=O)N2 (stereo not drawn) | -1.52
50 | CC1(c2ccccc2)CC(C)(C)N(C(=O)/C=C/c2ccccc2)c2ccccc21 (stereo not drawn) | 0.467

Row | SMILES | % Inhibition @ 10 uM [%]
51 | CC(=O)c1c(C)oc2c(Cl)c(Cl)c(O)cc12 | 0.484
52 | COc1ccc(CCNS(=O)(=O)c2ccc(Cl)cc2)cc1OC | 3.66
53 | Cc1ccc(Cn2nc(C)n3c(cc4cc(C)ccc43)c2=O)cc1 | -3.79
54 | CCOc1ccc2nc(NC(=O)C3CCN(S(=O)(=O)c4cccc5cccnc45)CC3)sc2c1 | -1.54
55 | CS(=O)(=O)c1ccc2[nH]c(NC(=O)CCN3C(=O)c4ccccc4C3=O)[s+]c2c1 | -1.38
56 | COc1ccccc1OCc1ccc(C(=O)NC2CCCCCC2)o1 | -6.94
57 | CCCCC1CCC(C(=O)OC23CCC(c4ccccc4)(CC2)CC3)CC1 (stereo not drawn) | -1.15
58 | CCNc1oc(COc2ccc(F)cc2)nc1C#N | -0.958
59 | COc1c(Cl)cc(Cl)cc1C1C(C#N)=C(N)Oc2[nH]nc(-c3ccc4c(c3)OCO4)c21 (stereo not drawn) | 2.32
60 | CCC(C)NC(=O)c1cn(CCOC)c(=O)c2c1c1ccccc1n2C (stereo not drawn) | 0.0221
61 | CC(NC(=O)c1cc2sccc2n1C)c1ccc2c(c1)OCCO2 (stereo not drawn) | -1.37
62 | CC[C@H](NC(=O)[C@H](CC(C)C)NC1=NS(=O)(=O)c2ccccc21)C(=O)c1nc2ccccc2o1 | -3.69
63 | Cc1ccc(Cn2cnc3c(cnn3-c3ccc(C)c(C)c3)c2=O)cc1 | -5.37
64 | c1ccc2c(c1)OCC(CN1CCCCC1)O2 (stereo not drawn) | 4.11
65 | Cc1nc2sc(C(=O)Nc3cnc4ccccc4c3)c(N)c2c(C)c1C | 2.95
66 | Cc1ccccc1Cn1c(SCc2ccccn2)nc2c1c(=O)n(C)c(=O)n2C | -0.703
67 | CN(C)c1nc(NC(=O)NS(=O)(=O)c2ccccc2Cl)nc(-c2ccco2)n1 | 2.38
68 | CN(CCCC(=O)n1cnc2ccccc21)S(=O)(=O)c1ccc(Cl)cc1 | -4.51
69 | Cc1cc(C(=O)NCCCN2CC(C)CC(C)C2)n(-c2ccccc2)n1 (stereo not drawn) | -3.7
70 | Cc1onc(-c2ccccc2Cl)c1C(=O)N1CC(C)OC(C)C1 (stereo not drawn) | -2.35
71 | COc1ccc2c(c1)C(C)=CC(C)(C)N2C(=O)Nc1ccc(C)cc1 | 2.17
72 | COc1ccc(S(=O)(=O)NCc2ccccc2OC)cc1 | -4.02
73 | CC1CCN(c2nn3c(=O)c(C(=O)NCc4ccco4)cnc3s2)CC1 | 1.8
74 | COc1cccc(CN2CCN(Cc3cc(Br)ccc3O)CC2)c1OC | -7.18
75 | O=C(Nc1ccc(O)cc1C(=O)O)c1ccc(N2C(=O)c3ccccc3C2=O)cc1 | 2.37

Row | SMILES | % Inhibition @ 10 uM [%]
76 | CCCc1cc(O)n2nc(COc3ccccc3)nc2n1 | -4.19
77 | CC(C)c1c(O)cc(-c2ccncc2)n(-c2ccc(Cl)cc2)c1=O | 4.61
78 | O=C(O)CSc1ncnc2sc3c(c12)CCCC3 | -2.62
79 | COc1ccc(/C=C2\N=C(c3cccs3)OC2=O)c(OC)c1OC | -2.15
80 | CC(C)(C)c1ccc(S(=O)(=O)N2CCN(Cc3noc(CCC(=O)N4CCCC4)n3)CC2)cc1 | -0.537
81 | COc1ccc(OC)c(C2C=C(c3ccc(Cl)cc3OC(F)F)Nc3nnnn32)c1 (stereo not drawn) | 3.45
82 | Cc1ccc(CCC2(O)CCCCC2)cn1 | 1.42
83 | COc1ccc(C2C3=C(Nc4ncnn42)c2cc(Cl)ccc2OC3c2cccs2)cc1 (stereo not drawn) | 0.0842
84 | CCOC(=O)c1c(C)[nH]c(C)c1S(=O)(=O)N1CCC(C(=O)N(CC)Cc2ccccc2)CC1 | 1.22
85 | Cc1cc(NC(=O)c2nc(-c3ccc(Cl)cc3)n3c2CCCCC3)no1 | 4.83
86 | COc1cccc(C2N3CC4(C)CN2CC(c2ccccc2)(C3)C4=O)c1O (stereo not drawn) | -3.08
87 | Cc1ccc(CSCc2ccc(C(=O)NCCCOC(C)C)o2)cc1 | 3.24
88 | CC1=C(C(=O)c2ccccc2)C(NC(=O)C2CC2)(C(F)(F)F)C(=O)N1CCc1ccccc1 (stereo not drawn) | -7.15
89 | CCN1CCCC1CNC(=O)c1cc2c(s1)CS(=O)(=O)C2 (stereo not drawn) | -6.26
90 | COc1ccc(-c2c(C)nn3c(NCC(C)c4ccccc4)cc(C)nc23)cc1OC (stereo not drawn) | -3.7
91 | CCc1ccc(CNC(=O)CCc2nc(-c3cccs3)no2)cc1 | 0.163
92 | COc1cc(OC)cc(C(=O)c2ccc(C(=O)Nc3ccc4ncccc4c3)cc2)c1 | 0.475
93 | CCCCNC(=O)c1nnn(-c2ccccc2)c1N | -1.68
94 | CCN1C(=O)c2cccc3c(NS(=O)(=O)c4ccc([N+](=O)[O-])cc4)ccc1c23 | -3.98
95 | CN1C(=O)c2ccccc2C(C(=O)NCc2ccc3c(c2)OCO3)C1c1cccs1 (stereo not drawn) | -3.31
96 | COc1ccccc1OCCCCN1CCOCC1 | 1.35
97 | COc1ccc(C(=O)Nc2ccccc2F)cc1OC | -3.26
98 | Nc1nc(-c2cccnc2)nn1C(=O)COc1ccccc1 | 3.93
99 | CC(=O)N1c2ccccc2N=C2CC(C)(C)CC(O)=C2C1CC1CC=C(C)C1(C)C (stereo not drawn) | 4.67
